Experimental data published in PubChem BioAssay AID485313 (National Center for Advancing Translational Sciences (NCATS), 2010).
The whole screen tested about 320,000 compounds, of which about 7,600 (2.4%) were called active. The inconclusive results got no clear call from the source; some entries with a clear call stand among them for comparison. Calls come from the whole dose curve; as a rule, active = well fitted activation curve with a large enough effect; inconclusive = small, poorly fitted or top-dose-only effect; inactive = no such curve, though single readings can be large or run the other way. Potencies of inconclusive entries are doubtful fits and often do not repeat.

Assay: qHTS Assay for NPC1 Promoter Activators; note: nearly all actives have a fitted effect of over 60% in size;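 for activation: reporter is driven by a mutant NPC1 promoter; % of control where 0% means no effect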
Conditions: Huh7 NPC1 promoter luciferase reporter, 24 h; series mostly up to 9.22 µM
In short: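 Luciferase expression driven by the NPC1 promoter was measured in stably transfected Huh7 cells after a 24 h compound incubation, using a luciferase reagent and a luminescence read.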
Potency is the fitted concentration of half-maximal effect; tags give direction and shape of the fitted curve.

Potency, inactive:
CN(C)c1nc(NCc2ccccc2)nc(N/N=C/c2ccccc2F)n1
CCN(CC)S(=O)(=O)c1ccc(Cl)c(NC(=O)COC(=O)/C=C/c2cc(OC)c(OC)c(OC)c2)c1
COc1cccc(Nc2nnc(SCC3CCCCO3)s2)c1 (centres undefined)
CCCCC(=O)Nc1nc(C)c(-c2csc(Nc3cc(OC)ccc3OC)n2)s1
Cc1cccc(OCC(=O)N(Cc2cccs2)C2CCS(=O)(=O)C2)c1C (centres undefined)
CNC(=O)COC(=O)/C=C/c1cn(-c2ccccc2)nc1-c1ccc2c(c1)OCCO2
CC(C)(/C=N/NC(=O)CSCc1ccccc1Cl)CCC#N
CCOc1ccc(S(=O)(=O)NCCC(=O)NCCOc2ccccc2OC)cc1
CCOc1ccc(Cc2n[nH]c(=S)n2N)cc1
COCCNC(=O)C1CCCN(S(=O)(=O)c2ccc3c(c2)CC(C)N3C(=O)C2CC2)C1 (centres undefined)
COC(=O)CNC(=O)c1cccc(-c2ccc(OC)cc2)c1
O=C(NCc1ccccc1)c1ccc(CSc2ccccc2)o1
CNC(=O)c1ccc(NC(=O)c2ccc3c(=O)n4c(nc3c2)CCC4)cc1
Cn1c(NCc2cccs2)nc2ccccc21
Cc1cccc(NS(=O)(=O)c2ccc3c(c2)OCCO3)c1
CC(=O)Nc1ccc(C(=O)Nc2ccc3c(c2)OCO3)cc1
CC(=O)Nc1ccc(NC(=O)c2cc(=O)c3ccccc3o2)cc1
CC(C)OCC1CO1 (centres undefined)
O=C(Cn1nnc(-c2ccccc2)n1)N1CCCCC1

Potency, inconclusive:
O=C(NNC(=O)C1COc2ccccc2O1)c1ccccc1O (centres undefined) 3.98 µM [activator, single point]
S=c1nc(-c2ccccc2)oc2c1CCCC2 2.24 µM [activator, partial curve]
O=[N+]([O-])c1ccc(COc2cccc3cccnc23)cc1 5.62 µM [activator, single point]
CCCCc1cc(O)c(CCCC)c(O)c1 3.55 µM [activator, single point]
O=C(NCC(=O)N1CCCCC1)c1ccc(Cl)cc1Cl 2 µM [activator, partial curve]
O=C(Nc1ccccc1F)Nc1ccccc1F 3.16 µM [activator, single point]
O=C(COc1ccc(Cl)cc1)Nc1ccccc1CO 3.55 µM [activator, partial curve]
Cc1ccc(OCC(=O)Nc2cccc(O)c2)cc1C 5.62 µM [activator, single point]
Oc1ccccc1/C=N/NC(=S)NC1CC2C=CC1C2 (centres undefined) 1.26 µM [activator, partial curve]
O=C(OCc1ccccn1)c1ccc(COc2ccc3ccccc3c2)o1 0.501 µM [activator, full curve]
CCCCC(=O)Nc1sc2c(c1C#N)CC(C)(C)OC2 5.62 µM [activator, single point]
C=CCn1c(SCC(C)=O)nc2scc(-c3ccc(C)o3)c2c1=O 3.16 µM [activator, single point]
Nc1nccc(-c2ccc(-n3cccc3)cc2)n1 2.24 µM [activator, partial curve]
COc1cc(OC)cc(C(=O)Nc2cccc(-c3ccc(N4CCOCC4)nn3)c2)c1 3.55 µM [activator, partial curve]
O=C(N/N=C/C(Cl)=C/c1ccccc1)c1ccccc1F 3.98 µM [activator, single point]
COC(CSc1nc(N)c2c3c(sc2n1)CN(C)CC3)OC 3.98 µM [activator, partial curve]
C=CCN(C(=O)Nc1ccc2c(c1)nc(C)n2C)c1ccccc1 5.62 µM [activator, single point]
Cc1cccc(OCCCC(=O)Nc2ccc(N(C)C)cc2)c1 5.62 µM [activator, single point]
Cc1ccc(NC(=O)CC2SCCNC2=O)cc1Cl (centres undefined) 3.16 µM [activator, single point]
O=C(NCc1cccc(Cl)c1)c1cccnc1 3.55 µM [activator, partial curve]
O=[n+]1cc(-c2cc3ccccc3o2)n([O-])c2c1CCCC2 6.31 µM [activator, single point]
CCCCC(=O)N1CCCC(c2nc(-c3cccc(OC)c3)no2)C1 (centres undefined) 3.98 µM [activator, single point]
[O-]/[N+](=C/c1ccc(F)cc1)c1ccc(Cl)cc1 3.98 µM [activator, partial curve]
O=C(Oc1ccc2c(=O)c(Cl)coc2c1)c1ccncc1 3.16 µM [activator, partial curve]
O=C(COC(=O)c1ccc(O)cc1O)c1ccc2c(c1)OCO2 4.47 µM [activator, single point]
O=C(NC(=S)Nc1ccc(Br)cn1)c1cccs1 5.62 µM [activator, single point]
O=c1c2ccccc2nnn1COc1cccc(Cl)c1 6.31 µM [activator, partial curve]
Cc1ccccc1C(=O)Nn1cnc2ccccc2c1=O 3.98 µM [activator, single point]
CCc1cc2c(=O)n3c(nc2s1)-c1[nH]c2ccc(OC)cc2c1CC3 2 µM [activator, partial curve]
O=c1c2c(nc3cc(-c4cccc(Cl)c4)[nH]n13)CCCC2 0.708 µM [activator, partial curve, poor fit]
CCn1c(C)nc2cc(C(=O)N=Nc3c(O)[nH]c4ccccc34)ccc21 2.82 µM [activator, partial curve]
COc1ccc(C(=O)CC(=O)c2ccc(C)cc2)c(O)c1 5.01 µM [activator, partial curve]
O=C(Nc1ccccc1)c1cc2ccccc2c(=O)s1 3.16 µM [activator, single point]
CCOc1nc(CC)nc(NC(=O)NS(=O)(=O)c2ccccc2Cl)n1 3.16 µM [activator, single point]
COc1cccc(Nc2nc3ccc(OC)cc3s2)c1 3.55 µM [activator, single point]
COc1ccccc1C(=O)Nc1sc2c(c1C#N)CCC2 6.31 µM [activator, single point]
C/C(=N\Nc1ccccn1)c1ccc(N2CCOCC2)cc1 1.58 µM [activator, partial curve]
Cc1cc(C(=O)Nc2ccc3c(c2)OCCO3)c(C)o1 5.62 µM [activator, single point]
Cc1ccc(CN(C(=O)c2cc3ccccc3oc2=O)C2CCS(=O)(=O)C2)cc1 (centres undefined) 3.16 µM [activator, partial curve]
Cc1cc(N2Cc3ccccc3C2)ccc1C=O 0.251 µM [activator, full curve]
O=C(/C=C\c1ccco1)c1ccc(NC(=O)c2ccco2)cc1 3.98 µM [activator, single point]
C/C(=N\OCc1ccc(C#N)cc1)c1ccccc1 3.16 µM [activator, partial curve]
CC(C)(C)OC(=O)N/N=C/c1ccc(Br)cc1 1.41 µM [activator, partial curve]
COc1ccc(CNc2ncccc2[N+](=O)[O-])cc1 3.16 µM [activator, single point]
COc1cc(NC(C)=O)ccc1NC(=O)c1cc2ccccc2o1 2.51 µM [activator, partial curve]
Clc1ccc(Cl)c(OCc2cc(-c3ccccc3Cl)on2)c1 3.16 µM [activator, single point]

Potency, active:
Nc1c(C(=O)Nc2ccccc2Cl)nnn1-c1ccc2c(c1)OCCO2 0.794 µM
COC(=O)N1N=C(c2ccc(Br)cc2)CC1(O)C(F)(F)F (centres undefined) 3.55 µM
Cc1ccc(NC(=O)c2cc3nc(C)cc(C)n3n2)cc1 0.631 µM
COc1cccc(NC(=O)c2ccccc2Br)c1 3.98 µM
C#Cc1cccc(NC(=O)c2ccc(Cl)cc2Cl)c1 1.78 µM
Cn1ccnc1SCC(=O)N1CCc2ccccc21 2.24 µM
O=C(c1ccc2c(c1)OCCCO2)c1cccs1 1.12 µM
Fc1cccc(Cl)c1CN1CCN(c2nc3ccccc3s2)CC1 2.51 µM
O=C(COc1ccc2c3c(c(=O)oc2c1)CCC3)Nc1ccccn1 0.398 µM
COc1ccc(/C(C#N)=C/c2ccccn2)cc1 2 µM
O=C(N/N=C/C(Br)=C\c1ccccc1)c1cccs1 2.24 µM
O=C(Nc1ccc2c(c1)CCC2)c1ccc(F)cc1 0.708 µM

activation, inactive:
O=C1C2=C(C(=O)c3ccccc31)C1O[C@](c3ccsc3)(Cc3ccccc31)O2 -6.77% [at 1.84 µM]
COc1cc2c(cc1OC)[C@@H]1O[C@](CCCCN3C(=O)c4ccccc4C3=O)(C2)Oc2cc(C)n(-c3ccccc3)c(=O)c21 -1.95% [at 1.84 µM]
